From PubChem BioAssay AID540267 (National Center for Advancing Translational Sciences (NCATS), 2011)
Out of some 340,000 compounds screened, about 530 (0.16%) were called active. The shares of active, inactive and inconclusive entries below differ from those in the screen. Rule as the data show it: active = activity change below about -80%; inconclusive = between about -30% and that limit; inactive = weaker than that.

assay: Small Molecules that selectively kill Giardia lamblia: qHTS; settings: Giardia lamblia trophozoite viability; at 7.66 µM; active compounds read low;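 also: parasites exposed to compound for two days anaerobically before the ATP read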
How it was run: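 Trophozoites 100 cells/well + cpd; 48 hrs, 37 deg C, anaerobic. ATPLite 1-Step added, 15-30 min RT, luminescence read (ATP-based viability).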
% is scaled to controls: 0 for no effect and ±100 for the full control effect.

Q: Which activity change does the source give for O=C(N/N=C/c1ccc(O)c([N+](=O)[O-])c1)C(O)(c1ccccc1)c1ccccc1 here?
A: inconclusive: -34.6% [inhibitor]

Q: For Cc1nnc(SCC(=O)Nc2nc3c(s2)CC(C)CC3)s1 (configuration not stated), which activity change is on record?
A: inactive: -26.9%

Q: For CCOC(=O)c1ccc(N2CSC3=C(C#N)C(c4ccc(OC)cc4OC)CC(=O)N3C2)cc1 (configuration not stated), which activity change is on record?
A: inactive: 9.73%

Q: For CC(=O)N=c1n(C)c2ccccc2n1CCOc1ccccc1, which activity change is on record?
A: inactive: -13.8%

Q: Which activity change does the source give for Cc1ccc(S(=O)(=O)N2[C@@H](c3ccc(F)cc3)C(C(=O)O)=CC[C@H]2c2ccc(Cl)cc2)cc1 here?
A: inconclusive: -46.7% [inhibitor]

Q: Which activity change does the source give for CCOc1ccccc1N=c1oc2cc(O)ccc2cc1C(=O)NCC1CCCO1 (configuration not stated) here?
A: inactive: 4.67%

Q: For O=C1CC(c2ccc(F)cc2)CC2=C1C(c1ccc([N+](=O)[O-])o1)Nc1ccccc1N2 (configuration not stated), which activity change is on record?
A: active: -90.1%

Q: For COCCCNC(=S)NCCNc1nc2cc(C)cc(C)c2cc1C#N, which activity change is on record?
A: inconclusive: -32.1% [inhibitor]

Q: Which activity change does the source give for O=C(Nc1ccc2c(c1)OCO2)C(=O)c1c[nH]c2ccccc12 here?
A: inconclusive: -37.9% [inhibitor]

Q: For CCN(Cc1ccncc1)Cc1nc(Cc2ccccc2Cl)no1, which activity change is on record?
A: inconclusive: -38.4% [inhibitor]

Q: For CC1(C)NC(=O)N(Cc2cc(=O)n3ccsc3n2)C1=O, which activity change is on record?
A: inconclusive: -32.9% [inhibitor]

Q: For COc1ccc(-c2csc(NC(CO)c3nc4ccccc4n3Cc3ccc(C)cc3)n2)cc1 (configuration not stated), which activity change is on record?
A: inconclusive: -34.7% [inhibitor]

Q: With Cc1cccc(NC(=S)NNC(=O)c2ccc3c(c2)OCO3)c1 as the molecule, how does the activity change read?
A: inconclusive: -35.6% [inhibitor]

Q: Which activity change does the source give for C=CCn1c2ccccc2c(=O)c2cc(C#CC3(O)CCCCC3)ccc21 here?
A: inconclusive: -42.7% [inhibitor]

Q: For N#CCCN(Cc1ccccc1)C(=S)Nc1ccccc1, which activity change is on record?
A: inactive: -0.183%

Q: With Cc1cc(NCCN2CCOCC2)n2ncc(-c3ccccc3)c2n1 as the molecule, how does the activity change read?
A: inconclusive: -35% [inhibitor]

Q: Which activity change does the source give for COC(=O)Nc1nc2ccc(Sc3ccccc3)cc2[nH]1 here?
A: inconclusive: -64% [inhibitor]

Q: With O=[N+]([O-])c1cccc(S(=O)(=O)c2cccc([N+](=O)[O-])c2)c1 as the molecule, how does the activity change read?
A: inconclusive: -42.8% [inhibitor]

Q: With Cc1cc(C[n+]2ncsc2N)c2ncccc2c1 as the molecule, how does the activity change read?
A: inactive: -8.77%

Q: For O=c1[nH]c(Cc2ccccn2)nc2scc(-c3ccc(Cl)cc3)c12, which activity change is on record?
A: inactive: -17%

Q: With O=[N+]([O-])c1cccc(N/N=C/c2ccc(N3CCOCC3)cc2)c1 as the molecule, how does the activity change read?
A: inactive: -19%

Q: For COc1ccc2c(c1OC)C(=O)N(c1ccc(O)cc1)C2, which activity change is on record?
A: inconclusive: -33.3% [inhibitor]
